Measurements: PubChem BioAssay AID1345083 (National Center for Advancing Translational Sciences (NCATS), 2018)
About 6,200 (6.6%) of roughly 94,000 compounds were called active. The inconclusive results got no clear call from the source; some entries with a clear call stand among them for comparison. Calls follow the shape of the dose curve; as a rule, active = well fitted inhibition curve with a large enough effect; inconclusive = small, poorly fitted or top-dose-only effect; inactive = flat fitted curve, though single readings scatter. A potency beside an inconclusive call is a rough fit, not a confirmed value.

Assay: Cytotoxic Profiling in HEK 293 Cell Line of Diverse Libraries Using Quantitative High-Throughput Screening; also: nearly all actives have a fitted effect of over 60% in size
Conditions: HEK 293 viability, ATP luminescence (CellTiter-Glo), 48-72 h; activity change, negative = cytotoxicity: at 115 µM (top of the series) unless noted; series mostly up to 115 µM
Outline: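 Pintool-delivered compounds were incubated with HEK 293 cells (250 cells/well) at 37 degree Celsius for 48 or 72 hr. ATP-dependent luminescence (CellTiter-Glo) then reported remaining viable cells.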
% is scaled to controls: 0 for no effect and ±100 for the full control effect; potency is read from the fitted curve at half-maximal effect; tags tell the direction and shape of the fitted curve.

SMILES	Potency	activity change, negative = cytotoxicity
CC(C)N1C[C@H](O)C[C@H]1c1nc(-c2ccc(C(F)(F)F)cc2)no1	inconclusive: 89.1 µM [inhibitor, partial curve, poor fit]	–
O=c1n(-c2ccc(F)cc2F)nc2n1CCN(Cc1ccc(F)cc1)C2	active: 50.1 µM	–
CC(=O)N1CCC(N[C@H]2CC(C)(C)[C@@H]3C[C@@](C)(O)CC[C@]23CCC(=O)NCCN2CCOCC2)CC1	–	inactive: 1.89%
COCCCNC(=O)C1(C)CN(Cc2ccccc2)Cc2ccc(Nc3ccccc3)nc21 (stereo not drawn)	inconclusive: 79.4 µM [inhibitor, partial curve, poor fit]	–
Cc1cccc(-c2ccc(C(=O)NCCCn3ccnc3C(C)C)cn2)c1C	inconclusive: 50.1 µM [inhibitor, partial curve, poor fit]	–
CCOc1ccccc1C(=O)N1CCC(n2cc(-c3nc(-c4ccccc4)no3)nn2)CC1	active: 39.8 µM	–
Cc1noc(C)c1CNC(=O)C1CCCNC1 (stereo not drawn)	–	inactive: 15.5%
O=C(NC1CCN(c2cc(-c3ccc(Cl)cc3)[nH]n2)C1)c1ccccc1 (stereo not drawn)	inconclusive: 56.2 µM [inhibitor, partial curve, poor fit]	–
Cn1cc(CC(=O)N2CCCc3ncc(C(=O)NCCOc4ccccc4)cc32)c2ccccc21	inconclusive: 79.4 µM [inhibitor, partial curve, poor fit]	–
CC(C)CN1CCN(C(=O)c2ccc3c(c2)N(S(C)(=O)=O)CC3)CC1	–	inactive: -1.2%
O=C(Nc1ccccc1)c1nc2c(o1)CCN(Cc1cccs1)CC2	inconclusive: 63.1 µM [inhibitor, partial curve, poor fit]	–
O=C1CC(c2nc(-c3ccc4nc[nH]c4c3)no2)CN1Cc1ccncc1 (stereo not drawn)	–	inactive: 1.22%
COC(=O)[C@@H]1Cc2c([nH]c3ccccc23)[C@H]2C[C@@H](NCc3cccs3)C[C@@H](c3ccccc3F)N21	active: 39.8 µM	–
COc1ccc(CNC(=O)c2nnn3cc(C)[nH]c(=O)c23)cc1	–	inactive: 2.94%
CC(C)(C)CC(=O)N1CCN2C(=O)c3cc(-c4cccc(C(F)(F)F)c4)ccc3NC(=O)[C@H]2C1	inconclusive: 50.1 µM [inhibitor, partial curve, poor fit]	–
COc1cc(C(=O)NC2CCN(c3cc(-c4ccc(F)cc4)[nH]n3)CC2)cc(OC)c1OC	inconclusive: 70.8 µM [inhibitor, partial curve, poor fit]	–
COc1ccc(-c2cccc(C(=O)N(C)Cc3ccccc3)c2)nn1	inconclusive: 50.1 µM [inhibitor, partial curve, poor fit]	–
O=C(O)[C@H](Cn1ccc(=O)[nH]c1=O)NCc1ncc[nH]1	–	inactive: -17.1% [at 230 µM]
